# Experimental data as given in the supplement of paper PMC8728848.
# The other results are listed elsewhere or left out.
# B1: CaSRK1 (Capsicum annuum) (protein)
# chain: MALCKIFPFAFILLSCSCYLISGQRFDYPTANLSTTWINSVSAPHSIDYTDGSRIRAILLRGTFGPRYACGFYCNGNCESYLFAIFIVQTNSASQITSPAIGFPQVVWSANRNNPVKINSTLQLTAEGDLVLRDADGTLAWSTNTAGKSVAGLSLTDEGNLALFDSKNATVWQSFDHPTDALVPGQKLVPGMKLTASVSRTNWTAGGLFALSAIDNGLVAFVESNPPQKYFEASVGGSNTSGGSNYVKYLNGSLTLFTHSADTTELILISITPASSAQYMKLESNGHLKVYEWTSRGWREVDDLLTGFRGECNYPTVCGRYGICTMGQCSCPTSSSSRTYFRPIDVRRPSLGCSEVTKLTCQNTKKHSPLEVEDVDYFAFKAGISDTDLNTCKRACLEKCSCKAAFFRSGLNSSRTRGDCYLPTEIFSIMNNEKDRTRYDSVAFIKVQV
# What was measured:
# Assay in all cases: glycan array binding signal (z-score within array); higher = stronger binding
# Details in all cases: glycan notation: IUPAC condensed, linker removed
# [1] = target: Neu5Ac(a2-3)Gal(b1-4)GlcNAc(b1-3)Gal(b1-4)GlcNAc(b1-3)Gal(b1-4)GlcNAc(b1-2)Man(a1-3)[Neu5Ac(a2-3)Gal(b1-4)GlcNAc(b1-3)Gal(b1-4)GlcNAc(b1-3)Gal(b1-4)GlcNAc(b1-2)Man(a1-6)]GalNAc
# Procedure, shortened: (§1)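 The binding signal is a Z-score computed within each array and averaged over linkers. Arrays of the same protein sequence at different concentrations or buffers were also averaged together. Data originate from 3228 arrays in the Consortium for Functional Glycomics database, kept only where the protein sequence was available.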
# [2] = target: Neu5Ac(a2-3)Gal(b1-4)GlcNAc(b1-3)Gal(b1-4)GlcNAc(b1-3)GalNAc
# Procedure, shortened: as §1
# [3] = target: Neu5Ac(a2-3)Gal(b1-4)GlcNAc(b1-3)Gal(b1-4)GlcNAc(b1-3)[Neu5Ac(a2-3)Gal(b1-4)GlcNAc(b1-3)Gal(b1-4)GlcNAc(b1-6)]GalNAc
# Procedure, shortened: as §1
# [4] = target: Neu5Ac(a2-3)Gal(b1-4)GlcNAc(b1-3)Gal(b1-4)GlcNAc(b1-6)[Gal(b1-3)]GalNAc
# Procedure, shortened: as §1
# [5] = target: Neu5Ac(a2-3)Gal(b1-4)GlcNAc(b1-3)Gal(b1-4)[Fuc(a1-3)]GlcNAc
# Procedure, shortened: as §1
# [6] = target: Neu5Ac(a2-3)Gal(b1-4)GlcNAc(b1-3)GalNAc
# Procedure, shortened: as §1
# [7] = target: Neu5Ac(a2-3)Gal(b1-4)GlcNAc(b1-3)[Neu5Ac(a2-3)Gal(b1-4)GlcNAc(b1-6)]GalNAc
# Procedure, shortened: as §1
# [8] = target: Neu5Ac(a2-3)Gal(b1-4)GlcNAc(b1-6)GalNAc
# Procedure, shortened: as §1
# [9] = target: Neu5Ac(a2-3)Gal(b1-4)GlcNAc(b1-6)[Gal(b1-3)]GalNAc
# Procedure, shortened: as §1
# [10] = target: Neu5Ac(a2-3)Gal(b1-4)GlcNAc(b1-6)[Neu5Ac(a2-3)Gal(b1-3)]GalNAc
# Procedure, shortened: as §1
# [11] = target: Neu5Ac(a2-3)Gal(b1-4)GlcNAc6S
# Procedure, shortened: as §1
# [12] = target: Neu5Ac(a2-3)Gal(b1-4)[Fuc(a1-3)]GlcNAc
# Procedure, shortened: as §1
# [13] = target: Neu5Ac(a2-3)Gal(b1-4)[Fuc(a1-3)]GlcNAc(b1-2)Man
# Procedure, shortened: as §1
# [14] = target: Neu5Ac(a2-3)Gal(b1-4)[Fuc(a1-3)]GlcNAc(b1-3)Gal
# Procedure, shortened: as §1
# [15] = target: Neu5Ac(a2-3)Gal(b1-4)[Fuc(a1-3)]GlcNAc(b1-3)Gal(b1-4)GlcNAc
# Procedure, shortened: as §1
# [16] = target: Neu5Ac(a2-3)Gal(b1-4)[Fuc(a1-3)]GlcNAc(b1-3)Gal(b1-4)[Fuc(a1-3)]GlcNAc(b1-3)Gal(b1-4)[Fuc(a1-3)]GlcNAc
# Procedure, shortened: as §1
# [17] = target: Neu5Ac(a2-3)Gal(b1-4)[Fuc(a1-3)]GlcNAc(b1-3)GalNAc
# Procedure, shortened: as §1
# [18] = target: Neu5Ac(a2-3)Gal(b1-4)[Fuc(a1-3)]GlcNAc(b1-6)[Gal(b1-3)]GalNAc
# Procedure, shortened: as §1
# [19] = target: Neu5Ac(a2-3)Gal(b1-4)[Fuc(a1-3)]GlcNAc(b1-6)[Neu5Ac(a2-3)Gal(b1-3)]GalNAc
# Procedure, shortened: as §1
# [20] = target: Neu5Ac(a2-3)Gal(b1-4)[Fuc(a1-3)]GlcNAc6S
# Procedure, shortened: as §1
# [21] = target: Neu5Ac(a2-3)Gal6S(b1-4)GlcNAc
# Procedure, shortened: as §1
# [22] = target: Neu5Ac(a2-3)Gal6S(b1-4)[Fuc(a1-3)]GlcNAc
# Procedure, shortened: as §1
# Neu5Ac(a2-3)GalNAc = target: Neu5Ac(a2-3)GalNAc
# Procedure, shortened: as §1
# [23] = target: Neu5Ac(a2-3)GalNAc(b1-4)GlcNAc
# Procedure, shortened: as §1
# [24] = target: Neu5Ac(a2-3)[GalNAc(b1-4)]Gal(b1-4)Glc
# Procedure, shortened: as §1
# [25] = target: Neu5Ac(a2-3)[GalNAc(b1-4)]Gal(b1-4)GlcNAc
# Procedure, shortened: as §1
# [26] = target: Neu5Ac(a2-3)[GalNAc(b1-4)]Gal(b1-4)GlcNAc(b1-3)GalNAc
# Procedure, shortened: as §1
# [27] = target: Neu5Ac(a2-3)[Neu5Ac(a2-6)]GalNAc
# Procedure, shortened: as §1
# Neu5Ac(a2-6)Gal = target: Neu5Ac(a2-6)Gal
# Procedure, shortened: as §1
# [28] = target: Neu5Ac(a2-6)Gal(b1-3)GlcNAc(b1-3)[Gal(b1-4)GlcNAc(b1-6)]Gal(b1-4)Glc
# Procedure, shortened: as §1
# Neu5Ac(a2-6)Gal(b1-4)Glc = target: Neu5Ac(a2-6)Gal(b1-4)Glc
# Procedure, shortened: as §1
# [29] = target: Neu5Ac(a2-6)Gal(b1-4)GlcNAc
# Procedure, shortened: as §1
# [30] = target: Neu5Ac(a2-6)Gal(b1-4)GlcNAc(b1-2)Man
# Procedure, shortened: as §1
# [31] = target: Neu5Ac(a2-6)Gal(b1-4)GlcNAc(b1-2)Man(a1-3)Man(b1-4)GlcNAc(b1-4)GlcNAc
# Procedure, shortened: as §1
# [32] = target: Neu5Ac(a2-6)Gal(b1-4)GlcNAc(b1-2)Man(a1-3)[Gal(b1-4)GlcNAc(b1-2)Man(a1-6)]Man(b1-4)GlcNAc(b1-4)GlcNAc
# Procedure, shortened: as §1
# [33] = target: Neu5Ac(a2-6)Gal(b1-4)GlcNAc(b1-2)Man(a1-3)[GlcNAc(b1-2)Man(a1-6)]Man(b1-4)GlcNAc(b1-4)GlcNAc
# Procedure, shortened: as §1
# [34] = target: Neu5Ac(a2-6)Gal(b1-4)GlcNAc(b1-2)Man(a1-3)[GlcNAc(b1-4)][Neu5Ac(a2-6)Gal(b1-4)GlcNAc(b1-2)Man(a1-6)]Man(b1-4)GlcNAc(b1-4)GlcNAc
# Procedure, shortened: as §1
# [35] = target: Neu5Ac(a2-6)Gal(b1-4)GlcNAc(b1-2)Man(a1-3)[Man(a1-6)]Man(b1-4)GlcNAc(b1-4)GlcNAc
# Procedure, shortened: as §1
binder,measurement,setting,value
B1,glycan array binding signal (z-score),[1],0.865
same,glycan array binding signal (z-score),[2],-0.141
same,glycan array binding signal (z-score),[3],-0.412
same,glycan array binding signal (z-score),[4],-0.485
same,glycan array binding signal (z-score),[5],-0.453
same,glycan array binding signal (z-score),[6],-0.357
same,glycan array binding signal (z-score),[7],-0.34
same,glycan array binding signal (z-score),[8],0.207
same,glycan array binding signal (z-score),[9],2.25
same,glycan array binding signal (z-score),[10],-0.424
same,glycan array binding signal (z-score),[11],-0.363
same,glycan array binding signal (z-score),[12],-0.511
same,glycan array binding signal (z-score),[13],-0.371
same,glycan array binding signal (z-score),[14],-0.598
same,glycan array binding signal (z-score),[15],-0.22
same,glycan array binding signal (z-score),[16],0.059
same,glycan array binding signal (z-score),[17],0.27
same,glycan array binding signal (z-score),[18],-0.531
same,glycan array binding signal (z-score),[19],-0.288
same,glycan array binding signal (z-score),[20],-0.426
same,glycan array binding signal (z-score),[21],-0.497
same,glycan array binding signal (z-score),[22],-0.236
same,glycan array binding signal (z-score),Neu5Ac(a2-3)GalNAc,0.135
same,glycan array binding signal (z-score),[23],-0.332
same,glycan array binding signal (z-score),[24],-0.515
same,glycan array binding signal (z-score),[25],-0.414
same,glycan array binding signal (z-score),[26],-0.173
same,glycan array binding signal (z-score),[27],0.188
same,glycan array binding signal (z-score),Neu5Ac(a2-6)Gal,-0.452
same,glycan array binding signal (z-score),[28],-0.063
same,glycan array binding signal (z-score),Neu5Ac(a2-6)Gal(b1-4)Glc,-0.466
same,glycan array binding signal (z-score),[29],-0.264
same,glycan array binding signal (z-score),[30],-0.42
same,glycan array binding signal (z-score),[31],-0.527
same,glycan array binding signal (z-score),[32],-0.423
same,glycan array binding signal (z-score),[33],-0.609
same,glycan array binding signal (z-score),[34],-0.579
same,glycan array binding signal (z-score),[35],-0.539
